Consider 19 molecules from the supplement of paper PMC12632987.

The labels stand for the following.
B1: GBRAP_184_5273 (protein)
chain: MVKKVDIVAETGEEAIKELKKAAEEAKKEGAKLKINLLLRNASVEEIKKLFKLIKELKEEGIIEDAVVGLEREKTEEEIDELLKAADEAGVKLVVAISDE
B2: GBRAP_160_4683 (protein)
chain: SEKVEKAEKFIKEEFEEVVELFDEVSREELAAATRVAFGQVKLFLEELGLLTDELDEVIDEEEEKIVNKILTDPNITKEEFKKLLEEAKKKIIEELKKIS
B3: GBRAP_166_4930 (protein)
chain: SLEEIYEEAQEEVNELAEKAKTADEEELIELALEIEEILKEAKEKGLSPEQLQEILLSALSLLADDPEKALALARYIEAAADDDEELIDVIRRAREEFLA
B4: GBRAP_137_3632 (protein)
chain: MKVKIEIKEYEDVVEITITVEDPSKAEEAEELILDIAHEHGALAVSVEVNEDGTLEVEIWVPREKALPLIKALIKAFKEELNAEVELVSEDTPIARELLA
B5: GBRAP_160_4080 (protein)
chain: SEAYKKLKEEIKEIFDEALEMMEDVSREEAVAIALVALGEVRLLIEEEEELSEEDKEKLLKEVDKAEKAVRAAADASVEELKALLKKARDEIIKKIEELD
B6: GBRAP_160_4296 (protein)
chain: SEKLEKHIKLIKETTKRTIELMKGESAEQRAAIVAGEWGALIYELSEDPSVSDETIDEFVKIRDEVVATILANPDLTDEELAALLEEAEKKMIEALKKSY
B7: GBRAP_139_3719 (protein)
chain: SAKEEAIEKAKEIVEKYKDDIEKLAEKLAELISTVDDETALEIARAAAEELKDYSWEEWEKLIEELSKKLKELGLDEDTVLAIEGEMEAVFAKHLMAKEA
B8: GBRAP_52_6109 (protein)
chain: MEAEAQAFVEEVLALVKAGRLEEAEALIRRKVAEWDDERLRVLGAALAARAREAAPEDLDAVWRLAEMIAEAMEAAGKDEVLADDLEASVAAALYERTLR
B9: GBRAP_52_6349 (protein)
chain: AREEARKIAEELVALKKAGKEEELKKRAEEIAKTWSEEEITLLFDVLAEMAKTASPEDAEAILEVAEILADALIEAGWDEFFASALLARVAAAVYENLQK
B10: GBRAP_26_5475 (protein)
chain: LEEIERETIEELAALLAELPDPDLAAAALAEATTIIIEAMERMEENKNDPEKLKEIVEEAVEEIERALRELGVPEEVRERLVEKAREGLEKAAEKILKES
B11: GBRAP_128_3327 (protein)
chain: MDEERLAEAKELIEAIVKADVETAKELTRELLRLMETLSDEERDLVVEWMEEELKKLDAEKLEAIADTIRELRPTLDPRTRLYANEIEVEALNLAEEKEE
B12: GBRAP_128_3594 (protein)
chain: SVEEVRAYVREALAAMKEADAETRREIADALMERLLTLSDEEQRAAFETIEELLPELSAEDLDILADALREHRPRFSPEGANLAADVEVEALNEREELEE
B13: GBRAP_128_3210 (protein)
chain: SVEEVKEEVRRLLERLSEADPEEAREIARELAELIRNSSVEEAEAALEVIEELAPELTEEQLDILMDAFIEAARETSDERSLVLLEIAIVLGSRILELEE
B14: GBRAP_160_3989 (protein)
chain: EEKKKELLKEIEEIFDETYELASGENPEERLTVVEVHMGEILLLLEESGIVSEETEEEIDKILDELVEKVKENPNMTDEELKELLDEALEKIKKIIESEK
B15: GBRAP_184_5028 (protein)
chain: TVLEEEIRAKDLAELEAALAALAARVAGSGADLVVSVSLENPTAEMVTTALAGLGAIKAAGNVARVTVGFEGELSEELREVALAAGDANGVRVVLPISDE
B16: GBRAP_160_4338 (protein)
chain: SPKTEEIIEFINEEFDETIELIEGESFEERKVIIEGTFGEILMYLSEDESISDETEDKVAEIFDETLATLDANPDLSLEEIKALINETRDKVIEIIKEEE
B17: GBRAP_52_6312 (protein)
chain: MHERMRELAEELLELMLAGDREGARALAREIVATLSEEELLLLAEELAELAEELDEEELEKAAELLFILEDEMEAAGVDERVIAEMLGIIITAIYKAEQK
B18: GBRAP_9_7182 (protein)
chain: TAEKKQKILENVKEEAELALEVTPEEKKPIIKEALDKLLEELEKLVADPNATLEEILEALEKGAKEIIELAKENLDKDTARQVEAILNTAILYAEEIVEE
B19: GBRAP_125_2970 (protein)
chain: MREELLEDLGLLARALGLSPEEVEELVELARRHSVRGALYALMAALGHDETAELVAQITEEEAEEVLRRVAAWIRAHPDATPEEVVAKLREELEAAIAAR

The full ranking holds about 4,500 sequences; the median of “median log2 fold change of GCK-ALFA target abundance (FLAG IP / Myc IP barcode read proportion)” is about 0.078, and the lowest 2% start at about -0.6. The list shows a part of the results.

GABARAP, O95166, sequence (O95166 whole entry, the tested form may be a part): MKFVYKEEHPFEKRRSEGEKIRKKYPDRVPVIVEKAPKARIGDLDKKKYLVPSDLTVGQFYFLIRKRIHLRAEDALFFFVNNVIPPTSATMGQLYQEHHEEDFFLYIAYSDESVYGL

The assay addresses GABARAP, O95166. Nature of the assay: median log2 fold change of GCK-ALFA target abundance (FLAG IP / Myc IP barcode read proportion) (log2 ratio); each designed protein is fused to an ALFA-tag nanobody in HEK293 cells to bring the named protein to FLAG-tagged glucokinase (GCK); Myc marks an untargeted standard; higher = target protein stabilised (more abundant). Conditions: target protein: 3xFLAG-MCP-GCK-ALFA reporter; HEK293 landing pad (RPLP). An outline of the steps:
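An ALFA-nanobody-fused binder library was recombined into HEK293 landing-pad cells and induced with 2 μg mL^−1 doxycycline. Cells were transfected with a plasmid expressing a FLAG-tagged target and a Myc-tagged standard. After 48 h, lysates underwent anti-FLAG and anti-Myc immunoprecipitation, and circular RNA barcodes were reverse transcribed, amplified and sequenced. Target abundance is the per-binder median log2 ratio of FLAG to Myc barcode read proportions. Barcodes needed ≥10^−7 proportion in both replicates, binders ≥3 barcodes per replicate, and a 10^−6 pseudocount was added; the two replicates were pooled.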
As to B1, the “median log2 fold change” value came out at 0.0569.

Take B2: the “median log2 fold change” value came to 0.198.

With B3, the “median log2 fold change” value is 0.138.

For the molecule B4, the “median log2 fold change” value is -0.125.

B5: the “median log2 fold change” value was -0.129.

Take B6: the “median log2 fold change” value was determined as 0.356.

Take B7: the “median log2 fold change” value was -0.269.

In the case of B8, the “median log2 fold change” value is -0.0728.

With B9, the “median log2 fold change” value amounted to 0.0622.

Take B10: the “median log2 fold change” value was -0.0301.

On to B11, for which the “median log2 fold change” value turned out to be 0.171.

For B12, the “median log2 fold change” value was -0.0656.

For the molecule B13, the “median log2 fold change” value was -0.232.

Regarding B14, the “median log2 fold change” value is -0.22.

For B15, the “median log2 fold change” value is 0.24.

On to B16, for which the “median log2 fold change” value is -0.423.

Regarding B17, the “median log2 fold change” value is -0.795.

For the molecule B18, the “median log2 fold change” value was determined as 0.27.

In the case of B19, the “median log2 fold change” value is -0.257.
